Source: the supplement of paper PMC4166925
± gives the standard deviation of the averaged measurements. Over roughly 33,000 sequences, “E-score (dimensionless, -0.5 to 0.5)” has its median near -0.049; the highest 2% begin near 0.37. The list shows a part of the results.

Test system: T1, PmTbr T-box DNA-binding domain (GST fusion)
T1 sequence: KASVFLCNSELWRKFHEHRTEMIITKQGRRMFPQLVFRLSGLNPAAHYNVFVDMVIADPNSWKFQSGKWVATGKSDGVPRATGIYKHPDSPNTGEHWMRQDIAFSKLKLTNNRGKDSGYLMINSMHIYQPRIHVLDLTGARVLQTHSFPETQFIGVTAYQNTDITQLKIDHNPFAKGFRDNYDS
Assay: PBM E-score of 8-mer (E-score (dimensionless, -0.5 to 0.5)); Tbr is Tbrain of the sea star Patiria miniata (Pm) or the sea urchin Strongylocentrotus purpuratus (Sp); higher = stronger binding preference; most listed sequences are background and not binding sites
Conditions: the construct has about 5 more residues each side
Method: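 Universal protein-binding microarray (Agilent AMADID 016060, 60-bp probes with a 35-bp variable region) incubated with 200 nM GST-fused Patiria miniata Tbr T-box DNA-binding domain (residues 272-466) in PBS pH 7.5. Scored for every ungapped 8-mer (given with its reverse complement) by the Universal PBM Analysis Suite as E-score (modified Wilcoxon-Mann-Whitney enrichment, range -0.5 to 0.5; >0.45 counts as bound) and Z-score of median probe intensity. Two replicate arrays (datasets 1 and 2).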

Sequence	PBM E-score of 8-mer
ATTTGCCG	0.102 ± 0.041
CTCTCCTA	-0.118 ± 0.0063
AACATACG	-0.03 ± 0.023
GAAGGACC	-0.241 ± 0.026
GAATAGCC	-0.144 ± 0.053
CGAGTTTC	0.0431 ± 0.014
ACGGCGTG	0.2621 ± 0.0012
AGTGGTTG	-0.0432 ± 0.029
AATAGGCA	-0.119 ± 0.009
GAGGCTAC	-0.192 ± 0.034
AACAGCGA	0.0744 ± 0.026
ATGAACAA	-0.144 ± 0.024
AGCTGTAT	-0.22 ± 0.046
GGACGCGA	-0.0355 ± 0.028
TAGCAACA	0.288 ± 0.0082
CCGCTAGC	0.0751 ± 0.017
ACCTTACC	0.0523 ± 0.018
ACGAAGGA	-0.134 ± 0.042
ACTGTAGG	-0.0391 ± 0.04
CTTACGTC	-0.119 ± 0.055
TCATTAAA	-0.113 ± 0.031
AAAGGTCG	-0.0893 ± 0.048
TCTTAAAA	0.00331 ± 0.079
CTTAGTAA	-0.0877 ± 0.026
GTTATGGA	-0.104 ± 0.0036

Sequence	PBM E-score of 8-mer
TCCATGCA	-0.238 ± 0.015
AGCACGCT	-0.0568 ± 0.002
ACTCTACA	-0.0227 ± 0.028
CACTCCGA	0.133 ± 0.023
CGAGCCTC	-0.21 ± 0.023
CCGCAGGA	-0.279 ± 0.045
CGCCGATA	-0.0288 ± 0.06
ACGCCTCT	0.2542 ± 0.0022
ACGAAGGC	0.1204 ± 0.00038
ACCGAAGC	-0.106 ± 0.0019
ATCGCGCG	0.314 ± 0.015
AGGCGACC	-0.13 ± 0.17
GATCATCA	0.0152 ± 0.026
ATCGATCA	-0.0185 ± 0.041
TCACCTGA	0.353 ± 0.019
ACAGAAGT	0.0721 ± 0.022
GCCAGCCC	-0.173 ± 0.021
CCATGGAC	0.0124 ± 0.025
CCGTAAAC	-0.126 ± 0.021
ATGTGGGA	0.175 ± 0.04
GAACATTC	-0.3 ± 0.045
AATTTGCG	0.18 ± 0.033
GCTGTACA	-0.0215 ± 0.03
CGAGGGTC	-0.133 ± 0.039
CTTGACAA	0.328 ± 0.0034

Sequence	PBM E-score of 8-mer
GAGGCGAA	-0.0798 ± 0.005
GGCCTGAC	-0.103 ± 0.02
ACATTAGG	0.0856 ± 0.037
GACAAGCA	-0.0524 ± 0.085
ATTCTTTC	-0.16 ± 0.093
GAGCGAGA	0.0973 ± 0.013
AAGCTCGT	-0.194 ± 0.088
CACTGGAA	-0.0945 ± 0.0084
ACTGGAAA	-0.2104 ± 0.0017
GACGCAAA	0.0266 ± 0.044
GCTGACTA	-0.0402 ± 0.059
ACTATGCA	0.0478 ± 0.048
TAGCTTAA	-0.163 ± 0.029
TAATATAA	-0.201 ± 0.047
GAAGCGCC	0.0934 ± 0.033
ATGCGGTC	-0.168 ± 0.11
AATGAGTG	-0.0213 ± 0.075
CTGATCGC	0.0865 ± 0.06
CCATGCGA	0.178 ± 0.025
ATCACTAA	0.0668 ± 0.0062
CCCGCCCC	0.0457 ± 0.015
AAGAATCC	-0.0447 ± 0.052
CCTGCTAG	0.0821 ± 0.036
AAGGATGC	-0.0358 ± 0.031
ACATCTCG	0.00518 ± 0.044

Sequence	PBM E-score of 8-mer
AGGCATTC	-0.101 ± 0.038
GAGTACCA	-0.0466 ± 0.035
AAACACCT	0.4565 ± 0.0016
TATCGTGA	0.0852 ± 0.01
AGGTGTAC	0.218 ± 0.043
AGTTCCAT	-0.00621 ± 0.036
AAGATGTG	0.224 ± 0.026
GGACTACC	-0.3 ± 0.087
ACGCCCAC	0.0928 ± 0.075
TTAGACAA	-0.144 ± 0.0043
GGCGTCTA	0.0319 ± 0.033
GGTTGTGA	0.244 ± 0.0053
GCGCTGAA	0.064 ± 0.049
AAGAAAAA	-0.0882 ± 0.11
ATGACCTG	0.0827 ± 0.042
CTACTGAG	-0.0598 ± 0.034
TCCAAAGA	-0.137 ± 0.036
CCTCAATA	-0.176 ± 0.051
ATTACTGA	-0.0734 ± 0.066
ACGCACCG	-0.0297 ± 0.17
CGTTGCGA	0.28 ± 0.02
GATGGATA	-0.142 ± 0.054
ACCTTACT	0.0445 ± 0.0097
TAAGGCGA	0.132 ± 0.064
GTACGTAA	-0.141 ± 0.023

Sequence	PBM E-score of 8-mer
AACAGAGT	-0.0158 ± 0.027
AATGCGAA	0.011 ± 0.054
CCCAAGAA	-0.0513 ± 0.002
ATAACTCG	-0.163 ± 0.1
GTTATAAC	0.0936 ± 0.081
AATCCAAT	-0.0242 ± 0.039
GCCATAAA	-0.0292 ± 0.012
GGTAAACC	0.131 ± 0.039
GTCACGCA	0.257 ± 0.019
ACCACCGG	-0.05 ± 0.12
CAGCAAGC	-0.103 ± 0.0015
ACTCACTC	-0.016 ± 0.059
CACCACTC	0.183 ± 0.016
GAGCCCCA	-0.0187 ± 0.036
AATTGAAC	-0.0777 ± 0.024
AGCGGCAA	0.0991 ± 0.016
ACTATAGA	-0.289 ± 0.034
ACCCCTGG	-0.111 ± 0.013
CCATACAG	-0.205 ± 0.0027
AGCGCGCA	0.104 ± 0.053
AATCCCTC	-0.173 ± 0.1
CGAGCTTC	-0.0216 ± 0.00046
AAGTTGAA	-0.328 ± 0.07
CATTTGCA	0.0315 ± 0.03
CCATACTC	0.0602 ± 0.026

Sequence	PBM E-score of 8-mer
AGAACCTA	-0.135 ± 0.064
ATGTCTCG	-0.153 ± 0.055
ACCATCTA	-0.112 ± 0.021
GCCTATGA	-0.192 ± 0.025
AGTTCAAG	-0.271 ± 0.039
CAAGATCG	-0.00864 ± 0.1
CTGTGGAA	-0.0725 ± 0.14
CTGTAAGC	-0.0165 ± 0.097
GGTGCATA	0.0156 ± 0.023
CACTGGGC	-0.267 ± 0.098
GCTAATCC	-0.0551 ± 0.047
ATGTAATA	-0.08 ± 0.0095
TTGAGAAA	0.0227 ± 0.14
GCGGACCA	-0.117 ± 0.039
CTTGAACA	-0.172 ± 0.0064
CAAGAGCC	-0.048 ± 0.0027
AAGCCGGA	-0.273 ± 0.086
AACGTCGC	0.0909 ± 0.015
AATCCGGT	-0.0786 ± 0.098
CAGGGGAC	-0.126 ± 0.043
CGATGGCG	0.168 ± 0.063
TATCTGCA	-0.0137 ± 0.015
ACCTCCCG	0.0185 ± 0.096
AAATTCTT	-0.155 ± 0.029
TACAAGGA	-0.184 ± 0.061

Sequence	PBM E-score of 8-mer
GGCTCCTA	-0.209 ± 0.029
CTTCACCC	0.0387 ± 0.019
GTTACGAA	0.0491 ± 0.02
ACGTGCAA	0.1917 ± 0.00088
GAAACCAC	-0.112 ± 0.0064
CAGCCCGC	-0.145 ± 0.03
CAAACACG	0.221 ± 0.04
GACTAGAC	-0.0973 ± 0.043
TGCGCTAA	0.247 ± 0.036
GCCGTTCC	-0.174 ± 0.035
ATTGGCAG	0.0761 ± 0.012
TATCTTGA	-0.215 ± 0.044
CAGCAAAG	-0.123 ± 0.027
ACGCTGCC	0.103 ± 0.022
AGTCTCTC	-0.152 ± 0.011
GTCTCGAA	-0.1315 ± 0.00068
AAACAATA	-0.0242 ± 0.037
CCTAAGCC	-0.113 ± 0.0019
CAAACCAG	-0.122 ± 0.032
CCCGAACC	-0.119 ± 0.062
GGTAACAC	0.43 ± 0.0044
CCGGTGCG	0.101 ± 0.07
